Experimental data as given in PMC4242493.
The list shows a part of the results. The list includes weakly bound sequences.

These sequences were tested against MaxL homodimer (UniProt P61244) (assay: universal protein-binding microarray (PBM)). Conditions: PBS-based mixture, 10 nM His-tagged protein dimer, 2% milk, 200 ng/uL BSA, 50 ng/uL salmon testes DNA, 0.02% TX-100; detection with Alexa 488 anti-His …; high values mean tight binding; most listed sequences are background and not binding sites; double strand, one strand shown.
Chain of UniProt P61244 (P61244 whole entry): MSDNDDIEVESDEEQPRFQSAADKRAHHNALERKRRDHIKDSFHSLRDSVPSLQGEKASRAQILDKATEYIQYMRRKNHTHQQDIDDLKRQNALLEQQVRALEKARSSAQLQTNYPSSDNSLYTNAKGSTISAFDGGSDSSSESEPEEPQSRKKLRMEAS

Row | Sequence | binding signal (normalized occupancy)
1 | ATCACGCC | 0.0864
2 | AAATGGCT | 0.0774
3 | ACGAGTAG | 0.075
4 | CTGCCTCC | 0.0705
5 | ACCAAAGG | 0.069
6 | ATACATGA | 0.0834
7 | CGTACTAG | 0.0712
8 | ATCCTCGG | 0.0718
9 | CGGACCAC | 0.0803
10 | CTGGGTGA | 0.0665
11 | AAAAGAAC | 0.0741
12 | GCGTCCAA | 0.072
13 | GAGGGATC | 0.0736
14 | ACAGGTGA | 0.084
15 | AAACCGCC | 0.0651
16 | AGCATCTC | 0.0746
17 | ATAAGAGA | 0.0795
18 | AGTTATAC | 0.0784
19 | CTCTGAAG | 0.068
20 | GTCGTGCA | 0.0855
21 | CTGTCCCC | 0.0754
22 | TGAATCCA | 0.0757

Row | Sequence | binding signal (normalized occupancy)
23 | CTGTCGAC | 0.0741
24 | AACGTGAC | 0.109
25 | GGAGCTCA | 0.0759
26 | AGAAAATA | 0.0744
27 | AATACTCT | 0.0782
28 | GTAATTTA | 0.0747
29 | CCGGTAGC | 0.0732
30 | CCTGTCTA | 0.0733
31 | GATCCAGC | 0.0752
32 | AATACCCC | 0.0855
33 | CCCGGGCC | 0.0643
34 | GGGCCAAC | 0.0715
35 | CAGACCTG | 0.0707
36 | AATCGGTA | 0.0782
37 | GGAACCCA | 0.0717
38 | AATCGACG | 0.0719
39 | AATTTCTC | 0.0726
40 | CCGGAATC | 0.0716
41 | CTAAGTCC | 0.0701
42 | CACCTTTA | 0.0769
43 | ACAGCACG | 0.0906
44 | ACCCGCCC | 0.0826

Row | Sequence | binding signal (normalized occupancy)
45 | GAGTGTAA | 0.0757
46 | ACCTTCCA | 0.0801
47 | CATCCGGA | 0.0723
48 | TAAATCGA | 0.0763
49 | CAATGGAA | 0.074
50 | GCCTCTAC | 0.0788
51 | CCTTGTGC | 0.0831
52 | AAGAGGCC | 0.0686
53 | ACAATGCA | 0.0822
54 | GCAATAGA | 0.0806
55 | AACTCCGA | 0.068
56 | ACCGTCGA | 0.0706
57 | TTCTCCAA | 0.0748
58 | CCCCCCGC | 0.0765
59 | CTTATACC | 0.0794
60 | GGCAATAA | 0.0771
61 | GTCCCCGA | 0.0696
62 | CGACAAGA | 0.0683
63 | AGTTTAGG | 0.0689
64 | CTAGCATA | 0.0766
65 | CACACGAA | 0.0853
66 | AGAAGAGG | 0.0712

Row | Sequence | binding signal (normalized occupancy)
67 | CCGTTCCG | 0.0671
68 | AGGGATCG | 0.0723
69 | GGCATTTA | 0.0801
70 | CCTGGGAG | 0.074
71 | AGTGCGTA | 0.0743
72 | TAGAGAAA | 0.0732
73 | CACCATAA | 0.0805
74 | CAAAGAGA | 0.0709
75 | AGCCGTCC | 0.067
76 | CCATCAGC | 0.0771
77 | CTCGTTAC | 0.0757
78 | GGTTTAAA | 0.0741
79 | ACCGTACA | 0.0768
80 | TTCCGCAA | 0.0715
81 | CACCTAAA | 0.0692
82 | AACGGAGA | 0.0747
83 | CAGGTCTA | 0.0749
84 | CAGTTGCG | 0.0733
85 | AGAGGACA | 0.0734
86 | CACATGAC | 0.129
87 | CCGTTAAG | 0.0714
88 | ACGAAAAG | 0.0718

Row | Sequence | binding signal (normalized occupancy)
89 | AAGGGTCG | 0.0738
90 | CGCTGAGA | 0.0761
91 | ATTCCAAC | 0.0749
92 | TAACGGTA | 0.0757
93 | AAGTTGCA | 0.0792
94 | CGTAATTA | 0.0761
95 | TGCTTGAA | 0.0759
96 | GCGTTACC | 0.0704
97 | ACAGGGAG | 0.0726
98 | CTCCTGCA | 0.0753
99 | CCTACACC | 0.0813
100 | CCTGTTCC | 0.0756
101 | AAAGAACT | 0.074
102 | GGCATATA | 0.083
103 | ATACTCCA | 0.0795
104 | GCAGGCGC | 0.0701
105 | AGTTATTA | 0.0813
106 | CAATCTGA | 0.0715
107 | CATTATTC | 0.0828
108 | CTCATGAC | 0.0906
109 | ATCTGTAG | 0.0767
